Data from PMC4242493.
The list shows a part of the results. The list includes weakly bound sequences.

target: MaxL homodimer (UniProt P61244); experiment: universal protein-binding microarray (PBM); conditions: PBS-based mixture, 10 nM His-tagged protein dimer, 2% milk, 200 ng/uL BSA, 50 ng/uL salmon testes DNA, 0.02% TX-100; detection with Alexa 488 anti-His …; high values mean tight binding; most listed sequences are background and not binding sites; double strand, one strand shown
Chain of UniProt P61244 (P61244 whole entry): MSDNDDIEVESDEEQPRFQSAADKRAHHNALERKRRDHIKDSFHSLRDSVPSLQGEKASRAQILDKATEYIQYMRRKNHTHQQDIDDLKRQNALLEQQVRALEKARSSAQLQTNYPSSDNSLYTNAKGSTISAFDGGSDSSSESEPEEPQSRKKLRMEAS

Sequence | binding signal (normalized occupancy)
CCAATGGG | 0.0687
AACTTATA | 0.0773
ACGCTTGA | 0.0824
AACACGAA | 0.0741
CCATTCGC | 0.0743
AACAACTC | 0.0756
CCCGAGGC | 0.0708
GATTTCAA | 0.0687
CCACCTGA | 0.099
AAAGATTG | 0.074
GAGACAAC | 0.0765
AAATGGTA | 0.0806
CTAAGCAC | 0.0741
CACACGGC | 0.0774
AGTTTAAT | 0.0788
CATCCCCG | 0.0773
AAGCTCGT | 0.0735
CGATTCTC | 0.0755
ATATATCG | 0.0769
GGCAGGAA | 0.0711
CTGGCACC | 0.0753
CGTCTGCC | 0.0776
AAATAAAG | 0.0763
CAACTTGA | 0.0718
CACATACC | 0.0797

Sequence | binding signal (normalized occupancy)
GCCAATTA | 0.0802
GCATCAGC | 0.0743
ATAGCAAA | 0.0805
GTGCTTAA | 0.0814
ACGGTATG | 0.0863
GCTAATAC | 0.073
CCTGGCTC | 0.0726
GGTATTTA | 0.0785
GGCTTCAC | 0.07
TAAAACTA | 0.073
GAGTTCCC | 0.0719
AGGGCAGC | 0.0693
CAGCAGCC | 0.0739
CAAGTACC | 0.0765
AGAGCCGC | 0.0694
ATCTAATC | 0.0817
CTCGCTAA | 0.0788
AAGATTGT | 0.0723
AGAAACAC | 0.0789
CTCCTAGA | 0.0723
ATCTTCGC | 0.0811
CTAATGTC | 0.0828
TATGACGA | 0.0799
AATGTATC | 0.0876
AAGTTCGA | 0.0722

Sequence | binding signal (normalized occupancy)
AGGCGGGG | 0.0849
AGTCGGTA | 0.075
GCATAGCC | 0.0775
AGACATGA | 0.0878
ATGTGCGC | 0.0928
CACAGACA | 0.0809
TATCCGAA | 0.0725
CGAAGTCG | 0.0684
CACCCGGA | 0.0742
GAAGAGCA | 0.0777
ATCGGTAG | 0.0791
GATCGGTA | 0.0727
TACTGATA | 0.0818
TAATAAGA | 0.0705
ATCAGGCG | 0.0806
CGTGGCTA | 0.0904
CGCCCCGC | 0.0714
TACCAATA | 0.0774
CGCAGACA | 0.0734
GTTCTGGA | 0.0742
CAATATCA | 0.0847
AGGACAAA | 0.0749
CGAATGTA | 0.0796
GGCAATCA | 0.08
CGGCGGAG | 0.0686

Sequence | binding signal (normalized occupancy)
TGGGAGAA | 0.0747
GTGAGCCA | 0.0856
ACGAGTAA | 0.0802
CTAAAGTC | 0.0656
GGCAGACA | 0.0757
ACAACACG | 0.0955
GCTTGGTA | 0.0733
CTATAGCA | 0.0757
AACGACTA | 0.0757
CAATGTTA | 0.0744
AACAAGAG | 0.0704
GCAGACTA | 0.0685
CTTAACGC | 0.0715
AGCGAGAT | 0.0717
GGACGTAC | 0.0744
GGCCGTGA | 0.0765
AACGTAGA | 0.0771
GCGATAGA | 0.0749
CTCACTAC | 0.0758
CGAGCTAG | 0.0711
AAAAAGGA | 0.0699
AGGTTACC | 0.073
GATAAAAC | 0.0726
ATTCTTAG | 0.0777
AGGGACCA | 0.0749

Sequence | binding signal (normalized occupancy)
ACTTCGAC | 0.0712
ATAAGATA | 0.078
CGGTGCGC | 0.0751
ATCACTAG | 0.0762
AACCCGCA | 0.0735
GAAACTTC | 0.0708
GTACGCGA | 0.0798
AGTAATCG | 0.0737
CAACAACA | 0.081
CGTCTCTC | 0.0706
ACTTGGGA | 0.0685
AGGGGGCG | 0.0785
GCACAGGC | 0.072
ATTAGTGA | 0.0772
ATTCTAAC | 0.078
ATCTGGGC | 0.0708
ACGTTAAT | 0.0786
ATTACTAG | 0.0746
ATACGTAC | 0.0818
AAGCTCAT | 0.0729
CGAAAATA | 0.0753
TAGGGAAA | 0.0792
ATGACTTG | 0.0818
ATGCCTTA | 0.0772
GAGACATC | 0.0756

Sequence | binding signal (normalized occupancy)
ACGGACAC | 0.0767
ATTTTATC | 0.0774
CGAGCAGC | 0.0765
CATTGACC | 0.085
CACGCAAA | 0.0846
CGAGATAA | 0.0811
ATACTTTG | 0.0742
AAGTGTAA | 0.0802
ATAAATAC | 0.0803
CCACGTAC | 0.0867
GACGATGC | 0.0723
AATTTTGA | 0.0693
ACAATTCT | 0.0743
AGATGTCG | 0.0787
ATTTCGTC | 0.0796
CAGCGGAC | 0.0674
TCAACCGA | 0.0694
GAATAGTA | 0.0757
AATTAACT | 0.0771
ACCCGGGG | 0.0709
CCCGGGCA | 0.0688
GATAGACA | 0.0795
CTATTGAG | 0.0738
ACATTACA | 0.0879
AGTGTCAG | 0.0752

Sequence | binding signal (normalized occupancy)
AGTAAGTC | 0.0741
CCACAGGC | 0.0705
CTTGGAGA | 0.0742
ACCACTGC | 0.0776
CGGTTTTA | 0.0708
TGGAGGAA | 0.0776
CAGAAACC | 0.0723
AATCTGGA | 0.0747
GTAACAAC | 0.0728
CCACGTGC | 0.814
ATAGAAGA | 0.0761
ACTAGACT | 0.07
ACAGCAAA | 0.0728
ACAGCCTG | 0.0749
ATAGTTGG | 0.0739
ATAGATAG | 0.0809
GCGTTACA | 0.0854
ACAGCTTC | 0.075
CATAGTTA | 0.0781
ACTACATG | 0.0893
CTCAAGTC | 0.0771
AGCACCAT | 0.0874
CGAGGGGC | 0.0727
AACGAAAA | 0.0748
CGGATAGA | 0.072

Sequence | binding signal (normalized occupancy)
GAAATGTC | 0.073
CGGTAAGC | 0.074
AGCGTTTC | 0.077
GCAAAGCC | 0.0666
TCTGAACA | 0.0756
GTACAGCA | 0.0793
ACTACATC | 0.0832
AATAACGT | 0.0823
CCTGGCGA | 0.0692
GAGTAGCC | 0.0702
AACTCCGT | 0.0692
CCCAGCGC | 0.0697
GTCAATAA | 0.081
ATGACGTA | 0.0763
AATATCGC | 0.0767
CTCCAATA | 0.075
ATGCCCAA | 0.0859
GACTTTAA | 0.0719
AACGACAC | 0.0763
CACGCGAA | 0.105
AGTCCATC | 0.0722
AGTATATC | 0.0765
GAGAAACA | 0.0796
AATTTCGT | 0.0735
GCGACGCA | 0.0736

Sequence | binding signal (normalized occupancy)
TCGTCCCA | 0.0727
CAAACTTC | 0.0697
TCGGAAAA | 0.0713
AATGGGAC | 0.0778
AAGGAATT | 0.072
CTTGGAAC | 0.0691
ACCGTAAT | 0.0701
ATTGCGGC | 0.0715
CCGTTACG | 0.0706
CTGGGATA | 0.077
TATGTCGA | 0.0802
CGCCGAAG | 0.0696
TGGAGAAA | 0.0767
CCATATGC | 0.1
AGCCTGTA | 0.073
GAGTGTCC | 0.0728
CATGCCTA | 0.0918
AGGTACCT | 0.0705
AGCTTGAT | 0.0729
GTGAGCAA | 0.0762
CGATCGAA | 0.0684
AACTGACC | 0.0708
AAAAAAAT | 0.0756
CTATCCGC | 0.0705
AGCCAGTC | 0.0711

Sequence | binding signal (normalized occupancy)
CCGCTATA | 0.0813
CCACAACC | 0.0815
ACCGTAGA | 0.0703
ATGTCGTA | 0.0818
ATGAGTGA | 0.0795
CGCGTATC | 0.0798
GGTTGCTA | 0.0758
ACTACTGC | 0.0761
CGGAGTAC | 0.0711
CTGTGGCC | 0.0788
ATACTTCG | 0.0717
ACCTCCTA | 0.0765
AATAGCCG | 0.0715
AAACATCC | 0.0762
CGAGGTAC | 0.0727
CCGGGACA | 0.0695
CAATAGTG | 0.0777
GGGGGGAC | 0.0757
CAGTTTCC | 0.0694
CAACCTGG | 0.0757
ACTGAACA | 0.0759
GACTAATA | 0.0769
AGTTATCA | 0.0747
ACCATGCC | 0.0954
CTACTGTA | 0.0728

Sequence | binding signal (normalized occupancy)
TACCAAGA | 0.0763
CGGGAGTC | 0.0726
CCCATTTA | 0.0761
CTGTCGTC | 0.0717
ACTATAAA | 0.0823
AACCTGGA | 0.0744
ATAGCGAG | 0.0712
AGACGTCT | 0.0713
AGCTTTTG | 0.0679
CGGCTTAC | 0.0688
TCCACCAA | 0.0719
AAGTAGGA | 0.0726
AGTGGCTG | 0.0673
GCAGTCAA | 0.0712
GCCTCTCC | 0.076
ACCCTTGC | 0.0725
ATCATGTC | 0.0895
CTTGGGTC | 0.071
AGATTATC | 0.0807
CTCTCGGC | 0.0656
CAATGTTC | 0.0701
CTAGAACA | 0.0739
GACTACAC | 0.0821
CGATGATA | 0.0772
GATAAGGC | 0.075

Sequence | binding signal (normalized occupancy)
CGAACACG | 0.0839
ATTTAGTC | 0.0723
TGTTTCAA | 0.0773
CAGGTTGG | 0.0748
GCCGCAGC | 0.0725
ACATGACA | 0.089
CAGGGCGG | 0.0698
GTGCGCCA | 0.0809
GAAGGACA | 0.0761
GATGTCTA | 0.0731
AGGGATTA | 0.0762
GCCCAAAC | 0.0713
TCCCATCA | 0.0825
CACCACAC | 0.0898
TGAATTAA | 0.0789
CCCAACGC | 0.0789
ACTATCTA | 0.0759
GACGACCA | 0.0733
ACTAAGAG | 0.0737
AGTCACTC | 0.0739
AGGTTTCG | 0.0742
TAGCGTAA | 0.0706
AGCCCCCG | 0.072
GGTGAAGA | 0.0783
ATAACGTA | 0.0784

Sequence | binding signal (normalized occupancy)
GTCCTCCA | 0.073
ACGTGCTA | 0.109
CCGTCTAA | 0.0757
ACCCAGAG | 0.0694
CGTGTGAC | 0.0871
CAATATCC | 0.0823
CCGATTGC | 0.0722
TACCGCGA | 0.0732
GTAGGTAA | 0.0764
AGCGCCGG | 0.0686
AACCTAAC | 0.0728
AAATCGAT | 0.0677
AACCGGGT | 0.0731
AGCCCGCC | 0.0647
ATGTGGAG | 0.0861
AGCAATAG | 0.0796
GTCGACGA | 0.0675
AATGATAT | 0.0814
AGTGAGCC | 0.0749
AAGAGGGA | 0.0761
CACGCATA | 0.0976
CCTCATGC | 0.109
GCGTTAAA | 0.0729
CGAAGGTC | 0.0691
GTTAACGA | 0.0721

Sequence | binding signal (normalized occupancy)
AACTAGGT | 0.0712
ACTAATCA | 0.0747
ACCGTCCG | 0.0715
GACATATC | 0.0794
AGCGTGGC | 0.108
AGAGCGAC | 0.0679
TAAAAAAA | 0.0771
AAATAAAC | 0.0754
AGAAATGA | 0.0741
GAACGGGC | 0.0687
CTCGGCCC | 0.0689
CATCGATG | 0.0853
AATTCCGT | 0.0746
CCATTGAG | 0.0704
CTTCACTC | 0.0724
ACGACGTA | 0.0786
GTTACCCA | 0.0762
AATAGGGT | 0.0784
CGAGCCTC | 0.0732
